Results: PubChem BioAssay AID1347417 (National Center for Advancing Translational Sciences (NCATS), 2020)
Screen size: about 120,000 compounds; about 5,300 (4.4%) were called active. The inconclusive results got no clear call from the source; some entries with a clear call stand among them for comparison. The call rests on the fitted dose curve; in most records, active means well fitted inhibition curve with a large enough effect; inconclusive means small, poorly fitted or top-dose-only effect; inactive means no such curve, though single readings can be large or run the other way. Potencies of inconclusive entries are doubtful fits and often do not repeat.

assay: qHTS Primary assay for Inhibitors of Plasmodium falciparum Dd2 growth in vitro; further: nearly all actives have a fitted effect of over 65% in size;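 on activity, negative = inhibition: plate controls were DMSO vehicle for no effect and reference drug for full effect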; conditions: P. falciparum Dd2 growth, SYBR Green, 72 h; activity, negative = inhibition: at 28.9 µM (top of the series) unless noted; series mostly up to 28.9 µM
Summary of the method: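 Infected erythrocytes (Dd2, 0.3% parasitemia, 2.5% hematocrit final) are added to compound in RPMI-1640/Albumax II medium, grown 72 h at 37C in low oxygen, then lysed with saponin/Triton-X containing SYBR Green and read by fluorescence.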
Potency means the concentration at half of the fitted maximal effect; tags describe the fitted curve by direction and shape.

Row | SMILES | Potency | activity, negative = inhibition
1 | COc1ccccc1CNC(=O)c1c(C)sc2ccn(Cc3ccc(F)cc3)c(=O)c12 | inconclusive: 3.98 µM [inhibitor, single point] | 
2 | CC(C)C(=O)N1CCC2(CC1)OC(=O)N(Cc1ccccc1)C2(C)c1ccccc1 (stereo not given) | inconclusive: 22.4 µM [inhibitor, single point] | 
3 | CN1CCCCCCN(C(=O)CCCc2ccccc2)[C@H]2CCC[C@H]2C1=O | inconclusive: 14.1 µM [inhibitor, single point] | 
4 | CN(Cc1ccc(F)cc1)Cc1cncs1 | inactive | 
5 | CCNC(=O)N1CCCCCC1CN1CCOCC1 (stereo not given) | inconclusive: 12.6 µM [inhibitor, single point] | 
6 | Cc1cc(C)c(NC(=O)Nc2ccc3snnc3c2)c(C)c1 | inactive | 
7 | Clc1ccccc1CNc1ncnc2c1c(-c1ccccc1)cn2-c1ccccc1 | inconclusive: 11.2 µM [inhibitor, single point] | 
8 | CC(CCc1ccccc1)NC(=O)Cn1ccn2nc3c(c2c1=O)CCCC3 (stereo not given) | inactive | 
9 | Cc1cc(F)ccc1OC1CN(CCC(C)C)C1 | inconclusive: 14.1 µM [inhibitor, single point] | 
10 | Cc1ccc(C)c(Cn2c3ccccc3c3cnn(CC(=O)NCc4ccccc4)c(=O)c32)c1 | inconclusive: 17.8 µM [inhibitor, single point] | 
11 | COc1ccc(-c2cc(N3CCC(NC(=O)c4ccc5nc[nH]c5c4)CC3)n[nH]2)cc1 | inconclusive: 2.24 µM [inhibitor, partial curve] | 
12 | COC(=O)C1=C(C)N=C2SC=C(CC(=O)NCCOc3ccccc3)N2C1c1cccc(OC)c1 (stereo not given) | inconclusive: 1.58 µM [inhibitor, partial curve, poor fit] | 
13 | Cc1ccc(CN2CCn3c(nn(-c4ccc([N+](=O)[O-])cc4)c3=O)C2)cc1 | inconclusive: 10 µM [inhibitor, partial curve, poor fit] | 
14 | COc1cc(OC)c(NC(=O)Cn2nc3n(c2=O)CCCC3)cc1Cl | inactive | 
15 | CCOC(=O)Cn1nc(C)c(NC(=O)COc2ccc(Cl)cc2C)c1C | inconclusive: 1.12 µM [inhibitor, single point] | 
16 | CCOc1ccccc1NC(=O)Cn1ccn(Cc2ccc(C)cc2)c(=O)c1=O | inconclusive: 10 µM [inhibitor, partial curve, poor fit] | 
17 | Cc1cc(NC(=O)C2CCN(S(=O)(=O)c3ccc4[nH]c(=O)oc4c3)CC2)ccc1Br | inconclusive: 11.2 µM [inhibitor, partial curve] | 
18 | Cc1ccc(NC(=O)c2cc3n(n2)CC(c2ccc(Cl)cc2)OC3)cc1 (stereo not given) | inconclusive: 0.0708 µM [inhibitor, full curve, poor fit] | 
19 | COCCNC(=O)[C@@H]1C[C@@H](O)CN1C1CCN(C(=O)c2cccc(OC)c2)CC1 | inactive | 
20 | COc1cccc(CN2Cc3cc(NC(=O)CC(C)(C)C)ccc3OC(C)C2=O)c1OC (stereo not given) | inconclusive: 3.16 µM [inhibitor, single point] | 
21 | O=C1c2cc(N3CCOCC3)nc(-c3cccc(O)c3)c2CN1CC(F)(F)F | active: 2.82 µM | 
22 | CCC(NC(=O)c1cc(OC)ccc1OC1CCN(C(C)=O)CC1)c1ccc(F)cc1 (stereo not given) | inactive | 

Row | SMILES | Potency | activity, negative = inhibition
23 | O=C(C1CCCC1)N1[C@H]2CC[C@@H]1c1cnc(-c3ccc(F)cc3)nc1C2 | inconclusive: 5.62 µM [inhibitor, partial curve] | 
24 | Cn1cc(-c2cnc(Nc3ccncc3)c3c2CCO3)cn1 | inactive | 
25 | COc1ccc(-c2n[nH]c3c2CC(=O)N(Cc2ccccc2F)C3)cc1F | inactive | 
26 | CS(=O)(=O)c1ccc(-c2nc(C(=O)N3CCCC3)n3ccccc23)cc1 |  | inconclusive: -82.9% [inhibitor]
27 | O=C(NC1CC1)[C@H]1CN2CCC1C[C@@H]2Cn1cc(CC2CCCCC2)nn1 (stereo not given in full) | inconclusive: 6.31 µM [inhibitor, partial curve, poor fit] | 
28 | Oc1ccccc1-c1cnc2n[nH]c(-c3ccc4c(c3)OCO4)c2n1 | active: 11.2 µM | 
29 | COc1ccc(CN2CC3(C2)C(=O)Nc2ccccc23)cc1 | inconclusive: 31.6 µM [inhibitor, single point] | 
30 | N#Cc1ccc(CNC2(Cc3cc(-c4ccc(F)cc4)on3)COC2)cc1 | inactive | 
31 | O=C(CN1Cc2nc(OCc3ccc(F)cc3)ccc2OCC1=O)N1CCCC1 | inactive | 
32 | Cc1cc(C)cc(-c2ccc(C(=O)N3CCC(Oc4cccnc4)CC3)cn2)c1 | inconclusive: 7.94 µM [inhibitor, partial curve] | 
33 | Cc1cc(C)cc(NC(=O)C2CCCN(C(=O)c3cnn(-c4ccccc4)c3-n3cccc3)C2)c1 (stereo not given) | inactive | 
34 | O=C1NCCOCCN(S(=O)(=O)c2cccc(F)c2)[C@H]2CCC[C@@H]12 | inconclusive: 2.82 µM [inhibitor, single point] | 
35 | Cc1noc(-c2cccc(OC3CN(C(=O)CN4C(=O)CCC4=O)C3)c2)n1 | inconclusive: 0.708 µM [inhibitor, single point] | 
36 | Cc1ccc(S(=O)(=O)c2c(Nc3cc(F)ccc3F)sc(C(=O)c3ccc(F)cc3)c2N)cc1 | inconclusive: 17.8 µM [inhibitor, single point] | 
37 | CC1(CCCCc2ccccc2)COc2ccc(C(=O)NCCc3cnc[nH]3)cc2N1 (stereo not given) | inconclusive: 22.4 µM [inhibitor, single point] | 
38 | COC[C@H]1CCCN1C(=O)[C@@H](C)C1CC[C@@]2(C)CC[C@H](NC(=O)CC(C)(C)C)[C@@H](C)[C@@H]2[C@H]1O (stereo not given in full) | inconclusive: 1.58 µM [inhibitor, partial curve, poor fit] | 
39 | CCN(CC)CCN(C(=O)c1ccco1)c1nc2ccc(Br)cc2s1 | inconclusive: 17.8 µM [inhibitor, single point] | 
40 | CCCOc1ccc(-c2nc(SC)[nH]c(=O)c2C#N)cc1OC | inconclusive: 8.91 µM [inhibitor, single point] | 
41 | Cc1ccc(Nc2c(-c3ccc(O)cc3)nc3cccc(C)n23)cc1 | inconclusive: 17.8 µM [inhibitor, single point] | 
42 | Cc1ccc(C(=O)Nc2cccc(-c3ccc(N4CCN(C)CC4)nn3)c2)cc1C | inconclusive: 12.6 µM [inhibitor, partial curve, poor fit] | 
43 | O=C(NC1CCN(C(=O)N2CC3CC(C2)[C@H]2CCCC(=O)N2C3)CC1)c1n[nH]c(=O)c2ccccc12 (stereo not given in full) | inconclusive: 8.91 µM [inhibitor, partial curve, poor fit] | 
44 | O=C(Nc1ccc(=O)n2c1[C@@H]1C[C@@H](CN(C(=O)c3ccc(F)cc3)C1)C2)c1ccc2c(c1)OCO2 | inconclusive: 4.47 µM [inhibitor, partial curve, poor fit] | 

Row | SMILES | Potency | activity, negative = inhibition
45 | CCCN(CCC)CCCNC(=O)Cn1ncc2c3ccccc3n(Cc3ccccc3)c2c1=O | active: 5.01 µM | 
46 | Cc1ccc(C(=O)Nc2ccc(OCc3cc(=O)n4c(C)csc4n3)cc2)cc1 | inconclusive: 1.12 µM [inhibitor, full curve, poor fit] | 
47 | O=C(Cn1c(-c2cccs2)cc2cc(Cl)ccc21)N1CCN(c2ccccc2F)CC1 | inconclusive: 17.8 µM [inhibitor, single point] | 
48 | CC(NC(=O)CN(c1ccc(Cl)cc1Cl)S(=O)(=O)c1ccccc1)c1ccccc1 (stereo not given) | inactive | 
49 | CCC(=O)Nc1ccc(CC)cc1-c1nc2ccccc2n(Cc2ccccc2)c1=O | inconclusive: 12.6 µM [inhibitor, single point] | 
50 | O=C1NCCCCCCN(Cc2ccncc2)[C@@H]2CN(C(=O)NCc3ccccc3)CC[C@@H]12 | inactive | 
51 | O=C1NCCCCCCN(Cc2ccncc2)[C@@H]2CN(C(=O)COc3ccc(F)cc3)CC[C@@H]12 | inconclusive: 4.47 µM [inhibitor, partial curve, poor fit] | 
52 | O=C(CC1CCCN(c2cn[nH]c(=O)c2)C1)Nc1ccccc1F (stereo not given) | inactive | 
53 | Cc1ccc(-n2ncc(C(=O)NCCc3c[nH]c4ccccc34)c2C2CCN(C(=O)OC(C)(C)C)CC2)cc1C | inconclusive: 0.562 µM [inhibitor, partial curve, poor fit] | 
54 | COCCN1CCNc2nc(CN(C)Cc3ccccc3)n(Cc3ccccc3)c2C1=O | inactive | 
55 | Cc1cccc(C)c1NC(=O)N1CCC(n2cc(-c3cccnc3)nn2)CC1 | inactive | 
56 | COc1ccc(NC(=O)C(Cc2ccccc2)n2cccc2)cc1OC (stereo not given) | inactive | 
57 | Cc1noc(C)c1-c1cc(-c2ccc(N3CCOCC3)nc2)cn2cncc12 | inconclusive: 3.98 µM [inhibitor, partial curve, poor fit] | 
58 | COc1ccc(Nc2cnc3ccc(-c4ccc(OC)c(OC)c4)nn23)cn1 | inactive | 
59 | CCc1nc(-c2ccc(C(=O)N3CCOCC3)cc2)n(-c2cccc(C)n2)n1 | inactive | 
60 | COc1ccc(C(=O)N[C@@H]2CCC[C@@H]2C(=O)NCc2ccc(OC(C)C)cc2)cc1 | inactive | 
61 | Cc1ccc(C)c(S(=O)(=O)c2nnn3c2nc(N2CCCCC2)c2ccccc23)c1 | active: 12.6 µM | 
62 | Cc1cccn2c(=O)cc(COc3cccc(NC(=O)COc4ccc(F)cc4)c3)nc12 | inconclusive: 6.31 µM [inhibitor, partial curve, poor fit] | 
63 | CCC(CC)c1cc([C@H]2CN3CC[C@H]2C[C@@H]3CNC(=O)COC)nc(-c2ccncc2)n1 | inconclusive: 3.16 µM [inhibitor, single point] | 
64 | COc1ccc(C(=O)N2CCC(c3n[nH]c(=O)n3Cc3ccc(F)cc3)CC2)c(C)c1 | inactive | 
65 | O=C(COc1ccc(F)cc1)N1CCC(c2noc(-c3ccncc3)n2)C1 (stereo not given) | inconclusive: 0.316 µM [inhibitor, full curve, poor fit] | 
